Where “and” joins values, the source holds several entries; their conditions need not be identical. Equal values may be shown once. This list was built around the results that the source calls inconclusive (neither active nor inactive); the mix of calls is not that of the screen. For some of these results: A potency beside an inconclusive call is a rough fit, not a confirmed value. Calls of active or inactive are those of the source. Unless noted, calls follow the shape of the dose curve; as a rule, active = well fitted curve in the direction sought with a large enough effect in the repeat runs; inconclusive = weak or mixed curves; inactive = no such curve, though single readings can be large; an effect the other way counts as inactive or inconclusive.
How the values were obtained:
[1] = target: Peroxisome proliferator-activated receptor gamma (Homo sapiens) (UniProt P37231); assay: qHTS assay to identify small molecule antagonists of the peroxisome proliferator-activated receptor gamma (PPARg) signaling pathway (AID 743191; calls by dose curve; also: % is scaled to controls: 0 for no effect and ±100 for the full control effect; nearly all actives have a fitted effect of over 30% in size); settings: HEK293H PPARg-UAS-bla, beta-lactamase ratio, antagonist, 17 h; ratio activity, negative = inhibition: at 62.6 µM (top of the series) unless noted
UniProt P37231, sequence (P37231 whole entry, looked up): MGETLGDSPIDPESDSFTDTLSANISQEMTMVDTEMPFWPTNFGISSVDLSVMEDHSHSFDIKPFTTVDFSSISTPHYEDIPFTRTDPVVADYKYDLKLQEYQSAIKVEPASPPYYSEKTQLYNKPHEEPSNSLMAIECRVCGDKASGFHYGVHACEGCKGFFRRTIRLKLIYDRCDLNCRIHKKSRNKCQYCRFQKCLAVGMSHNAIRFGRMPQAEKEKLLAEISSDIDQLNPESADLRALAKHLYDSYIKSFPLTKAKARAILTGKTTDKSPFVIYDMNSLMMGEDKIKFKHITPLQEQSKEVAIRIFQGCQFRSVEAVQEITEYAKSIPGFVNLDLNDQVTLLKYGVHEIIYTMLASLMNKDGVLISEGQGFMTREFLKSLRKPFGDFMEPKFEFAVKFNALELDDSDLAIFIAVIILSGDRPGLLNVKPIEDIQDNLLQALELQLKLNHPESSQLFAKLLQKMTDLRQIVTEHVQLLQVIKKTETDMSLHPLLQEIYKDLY
In short: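 Beta-lactamase reporter under UAS control in HEK293H PPARg-bla cells; compound treatment 17 h at 37C. Read-out: fluorescence intensity after 1 h room-temperature incubation with LiveBLAzer B/G FRET substrate.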

[2] = qHTS assay for small molecule agonists of the antioxidant response element (ARE) signaling pathway (AID 743202; active = well fitted activation curve with a large enough effect in the signal ratio in the repeat runs, not every such curve was filed as active; inconclusive = weak or mixed curves, or effect the other way; inactive = no such curve, though single readings can be large or run the other way; the % refers to the signal ratio; also: potency is read from the fitted curve at half-maximal effect); settings: HepG2 ARE-bla reporter, beta-lactamase FRET, 16 h; for Potency: activation: at 73.3 µM (top of the series) unless noted
In short: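 Beta-lactamase reporter activity, read as fluorescence intensity, reflects ARE/Nrf2 pathway induction in HepG2 cells after 16 h compound exposure at 37 C; substrate loading was 2 h at room temperature.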

[3] = target: Vitamin D3 receptor (Homo sapiens) (UniProt P11473); assay: qHTS assay to identify small molecule antagonists of the vitamin D receptor (VDR) signaling pathway (AID 743223; active = well fitted inhibition curve with a large enough effect in the signal ratio in the repeat runs, not every such curve was filed as active; inconclusive = weak or mixed curves, or effect the other way; inactive = no such curve, though single readings can be large or run the other way; the % refers to the signal ratio; also: % is scaled to controls: 0 for no effect and ±100 for the full control effect); settings: VDR-UAS-bla HEK293T, beta-lactamase FRET ratio, 16 h; activity change, negative = inhibition: at 61 µM (top of the series) unless noted
UniProt P11473, sequence (P11473 whole entry, looked up): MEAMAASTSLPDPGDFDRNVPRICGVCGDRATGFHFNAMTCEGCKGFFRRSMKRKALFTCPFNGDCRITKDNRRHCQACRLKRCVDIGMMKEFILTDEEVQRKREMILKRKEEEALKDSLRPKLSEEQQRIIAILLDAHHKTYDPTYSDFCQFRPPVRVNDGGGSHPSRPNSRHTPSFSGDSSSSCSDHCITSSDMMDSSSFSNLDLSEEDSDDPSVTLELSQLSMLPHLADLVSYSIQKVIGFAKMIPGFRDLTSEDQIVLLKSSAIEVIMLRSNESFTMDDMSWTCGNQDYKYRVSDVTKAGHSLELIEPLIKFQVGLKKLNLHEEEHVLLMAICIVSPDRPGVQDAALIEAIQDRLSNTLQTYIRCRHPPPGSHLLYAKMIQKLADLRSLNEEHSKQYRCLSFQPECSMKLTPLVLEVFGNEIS
In short: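 VDR-bla cells were plated, incubated 4 h at 37C, then given compound and 1alpha,25-dihydroxyvitamin D3 (3 nM final). After 16 h at 37C, LiveBLAzer B/G FRET substrate was added for 2 h at room temperature and fluorescence read.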

[4] = qHTS assay for small molecule activators of the heat shock response signaling pathway - cell viability counter screen (AID 743209); settings: HSE-bla HeLa viability, CellTiter-Glo luminescence, 5 h; activity change, negative = cytotoxicity: at 62.6 µM (top of the series) unless noted; also: potency is read from the fitted curve at half-maximal effect; nearly all actives have a fitted effect of over 50% in size
In short: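 Same-well multiplex: after 2.5 h room-temperature incubation with LiveBLAzer B/G substrate and fluorescence reading, CellTiter-Glo reagent was added to HSE-bla HeLa cells that had received compound for 5 h at 37 C; luminescence read after 30 min.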

[5] = qHTS assay to identify small molecule antagonists of the peroxisome proliferator-activated receptor delta (PPARd) signaling pathway - cell viability counter screen (AID 743213); settings: PPARd-bla HEK293H viability, CellTiter-Glo luminescence, 17 h; viability change, negative = cytotoxic: at 62 µM (top of the series) unless noted; also: potency is read from the fitted curve at half-maximal effect; nearly all actives have a fitted effect of over 50% in size
In short: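 Agonist-stimulated (L165041, 300 nM final) HEK293H PPARd UAS-bla cells are exposed to compounds for 17 h at 37 C, and ATP-based luminescence (CellTiter-Glo) from the same wells reports cytotoxicity.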

[6] = target: Bile acid receptor (Homo sapiens) (UniProt Q96RI1); assay: qHTS assay to identify small molecule antagonists of the farnesoid-X-receptor (FXR) signaling pathway (AID 743217; active = well fitted inhibition curve with a large enough effect in the signal ratio in the repeat runs, not every such curve was filed as active; inconclusive = weak or mixed curves, or effect the other way; inactive = no such curve, though single readings can be large or run the other way; the % refers to the signal ratio; also: % is scaled to controls: 0 for no effect and ±100 for the full control effect); settings: HEK293T FXR-UAS-bla, beta-lactamase ratio, CDCA-stimulated, 16 h; activity change, negative = inhibition: at 62.6 µM (top of the series) unless noted
UniProt Q96RI1, sequence (Q96RI1 whole entry, looked up): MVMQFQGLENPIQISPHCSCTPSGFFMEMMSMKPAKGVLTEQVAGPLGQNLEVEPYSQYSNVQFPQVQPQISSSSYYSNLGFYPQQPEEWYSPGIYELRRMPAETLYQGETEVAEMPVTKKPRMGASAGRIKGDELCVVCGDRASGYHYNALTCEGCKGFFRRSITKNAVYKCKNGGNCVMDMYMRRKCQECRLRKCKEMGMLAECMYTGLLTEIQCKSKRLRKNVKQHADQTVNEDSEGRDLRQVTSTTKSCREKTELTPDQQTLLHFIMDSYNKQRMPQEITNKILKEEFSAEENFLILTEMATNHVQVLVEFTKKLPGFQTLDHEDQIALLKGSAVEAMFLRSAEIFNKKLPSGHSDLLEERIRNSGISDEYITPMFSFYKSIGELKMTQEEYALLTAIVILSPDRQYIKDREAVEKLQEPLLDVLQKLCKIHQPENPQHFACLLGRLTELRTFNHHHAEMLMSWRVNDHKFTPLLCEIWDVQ
In short: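 FRET fluorescence after 2 h room-temperature LiveBLAzer loading gives the readout. Prior step: FXR-bla HEK 293T cells, seeded and incubated 5 h, received test compounds plus 50 uM final CDCA for 16 h at 37 °C.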

[7] = qHTS assay to identify small molecule agonists of the farnesoid-X-receptor (FXR) signaling pathway - cell viability counter screen (AID 743218); settings: FXR-bla HEK293T viability, CellTiter-Glo luminescence, 16 h; viability change, negative = cytotoxic: at 62.6 µM (top of the series) unless noted; also: potency is read from the fitted curve at half-maximal effect; nearly all actives have a fitted effect of over 45% in size
In short: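 Readout: CellTiter-Glo luminescence, 30 min RT, multiplexed after the FXR-bla FRET reading. HEK 293T FXR-UAS-bla cells received compound 5 h post-plating and were incubated 16 h at 37 C.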

[8] = target: Vitamin D3 receptor (Homo sapiens) (UniProt P11473); assay: qHTS assay to identify small molecule agonists of the vitamin D receptor (VDR) signaling pathway (AID 743222; calls by dose curve; also: % is scaled to controls: 0 for no effect and ±100 for the full control effect); settings: HEK293T VDR-UAS-bla, beta-lactamase FRET ratio, 16 h; activation: at 63.5 µM (top of the series) unless noted
In short: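 Following 4 h attachment at 37C, VDR-bla cells (2,000 per well) received DMSO-dissolved compounds or controls. After 16 h incubation, LiveBLAzer B/G FRET substrate was added and fluorescence read 2 h later at room temperature.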

[9] = qHTS assay to identify small molecule antagonists of the peroxisome proliferator-activated receptor gamma (PPARg) signaling pathway - cell viability counter screen (AID 743194); settings: PPARg-bla HEK293H viability, CellTiter-Glo luminescence, 17 h; Potency: co-treated with 50 nM rosiglitazone unless noted; activity change, negative = cytotoxicity: at 62.6 µM (top of the series), co-treated with 50 nM rosiglitazone unless noted; also: nearly all actives have a fitted effect of over 55% in size; also: potency is read from the fitted curve at half-maximal effect
In short: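 Viability was measured as CellTiter-Glo luminescence in GeneBLAzer PPARg UAS-bla HEK293H cells. These cells had been exposed 17 h at 37 C to compounds together with rosiglitazone at 50 nM final, with the beta-lactamase readout taken in the same wells.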

[10] = target: Bile acid receptor (Homo sapiens) (UniProt Q96RI1); assay: qHTS assay to identify small molecule agonists of the farnesoid-X-receptor (FXR) signaling pathway (AID 743220; active = well fitted activation curve with a large enough effect in the signal ratio in the repeat runs, not every such curve was filed as active; inconclusive = weak or mixed curves, or effect the other way; the % refers to the signal ratio; also: % is scaled to controls: 0 for no effect and ±100 for the full control effect); settings: HEK293T FXR-UAS-bla, beta-lactamase FRET ratio, 16 h; activation: at 62.6 µM (top of the series) unless noted
In short: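 FXR-UAS-bla HEK 293T cells carrying a UAS-driven beta-lactamase reporter were plated for 5 h at 37C/5% CO2, then exposed to DMSO-dissolved Tox21 10K compounds for 16 h at 37C. A LiveBLAzer B/G FRET substrate was loaded for 2 h at room temperature before fluorescence reading.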

[11] = qHTS assay to identify small molecule agonists of the vitamin D receptor (VDR) signaling pathway - cell viability counter screen (AID 743224); also: nearly all actives have a fitted effect of over 50% in size; also: potency is read from the fitted curve at half-maximal effect
In short: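 In parallel with the bla FRET readout, cytotoxicity toward VDR-bla cells after 16 h compound exposure was assessed by CellTiter-Glo, with luminescence recorded after a 30 min room-temperature incubation.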

[12] = qHTS assay to identify small molecule antagonists of the vitamin D receptor (VDR) signaling pathway - cell viability counter screen (AID 743225); settings: VDR-bla HEK293T viability, CellTiter-Glo luminescence, 16 h; viability change, negative = cytotoxic: at 61 µM (top of the series) unless noted; also: potency is read from the fitted curve at half-maximal effect; nearly all actives have a fitted effect of over 50% in size
In short: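 VDR-bla HEK 293T cells, 4 h pre-incubation at 37C, then compound plus 1-alpha,25-dihydroxyvitamin D3 (3 nM final) for 16 h. After the beta-lactamase FRET read, CellTiter-Glo was added to the same wells; luminescence after 30 min at room temperature.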

[13] = qHTS assay for small molecule agonists of the antioxidant response element (ARE) signaling pathway - cell viability counter screen (AID 743203; calls by dose curve; also: potency is read from the fitted curve at half-maximal effect; nearly all actives have a fitted effect of over 55% in size)
In short: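 Measured in the same wells as the beta-lactamase ARE reporter, this read-out is CellTiter-Glo luminescence from HepG2 ARE-bla cells given compounds for 16 hrs.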

[14] = target: Peroxisome proliferator-activated receptor delta (Homo sapiens) (UniProt Q03181); assay: qHTS assay to identify small molecule agonists of the peroxisome proliferator-activated receptor delta (PPARd) signaling pathway (AID 743212; calls by dose curve;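 also: HEK293H cells with PPARd UAS beta-lactamase reporter GeneBLAzer system; potency is read from the fitted curve at half-maximal effect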); settings: HEK293H PPARd-UAS-bla, beta-lactamase FRET ratio, 17 h; activation: at 62.6 µM (top of the series) unless noted
UniProt Q03181, sequence (Q03181 whole entry, looked up): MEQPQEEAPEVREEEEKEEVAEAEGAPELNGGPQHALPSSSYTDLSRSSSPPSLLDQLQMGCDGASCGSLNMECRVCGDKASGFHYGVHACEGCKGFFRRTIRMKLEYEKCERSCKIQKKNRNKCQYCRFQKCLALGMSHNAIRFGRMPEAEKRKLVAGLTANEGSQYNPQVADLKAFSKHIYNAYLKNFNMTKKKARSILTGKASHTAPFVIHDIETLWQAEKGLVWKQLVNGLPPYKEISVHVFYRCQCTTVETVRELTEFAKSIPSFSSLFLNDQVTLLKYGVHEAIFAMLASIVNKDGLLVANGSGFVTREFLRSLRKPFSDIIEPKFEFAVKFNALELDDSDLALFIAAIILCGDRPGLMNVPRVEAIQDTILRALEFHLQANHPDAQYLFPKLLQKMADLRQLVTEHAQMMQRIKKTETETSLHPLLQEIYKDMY
In short: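 Steps: seed PPARd-bla HEK293H cells; incubate 5 h, 37 C, 5% CO2; add compounds in DMSO; incubate, 37 C; add LiveBLAzer B/G FRET substrate; hold 2 h at room temperature; measure fluorescence.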

[15] = qHTS assay to identify small molecule antagonists of the farnesoid-X-receptor (FXR) signaling pathway - cell viability counter screen (AID 743221; active = well fitted cell-killing curve with a large enough effect in the repeat runs, not every such curve was filed as active; inconclusive = weak or mixed curves, or effect the other way; inactive = no such curve, though single readings can be large or run the other way); settings: FXR-bla HEK293T viability, CellTiter-Glo luminescence, 16 h; activity change, negative = cytotoxicity: at 62.6 µM (top of the series) unless noted
In short: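 FXR-UAS-bla HEK 293T cells were treated with test compounds plus chenodeoxycholic acid (50 uM final) for 16 h at 37 C. Cell viability in the same wells was then read as CellTiter-Glo luminescence after 30 min at room temperature.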
Tags tell the direction and shape of the fitted curve.

SMILES: N#CC(O)c1ccccc1 (centres undefined)
- Potency [1]: inactive
- Potency [2]: inactive
- activity change, negative = inhibition [3]: inconclusive: 5.4%

SMILES: O=C(O)C(Br)Br
- ratio activity, negative = inhibition [1]: inconclusive: 4.94% [at 81.1 µM]
- Potency [4]: inconclusive: 0.248 µM [rising, partial curve, poor fit]
- Potency [5]: inconclusive: 55.6 µM [cytotoxic, single point]
- Potency [6]: inactive
- Potency [7]: inconclusive: 22.1 µM [rising, partial curve, poor fit]
- activity change, negative = inhibition [3]: inconclusive: 13.8% [at 78.8 µM]

SMILES: C=CCOC(C)=O
- ratio activity, negative = inhibition [1]: inconclusive: 4.12%
- Potency [2]: inactive
- Potency [8]: inactive

SMILES: O=[Se]=O
- Potency [9]: inconclusive: 4.86 µM [cytotoxic, full curve]
- Potency [2]: active: 8.58 µM
- Potency [10]: inactive
- Potency [8]: inactive
- Potency [11]: inactive

SMILES: CCCCn1cc[n+](C)c1
- activity change, negative = cytotoxicity [9]: inconclusive: -34.4% [cytotoxic] [at 62.6 µM]
- Potency [2]: inconclusive: 69.1 µM and inconclusive: 68.9 µM
- activation ([2]; at 73.3 µM (top of the series)): inconclusive: 25.9% and inconclusive: 16.1%
- activation ([2]; at 94.8 µM (top of the series)): inconclusive: 23% and inconclusive: 24.2% and inconclusive: 31.8%
- Potency [4]: inconclusive: 0.0026 µM [rising, full curve]
- Potency [11]: inconclusive: 38.9 µM [cytotoxic, partial curve]
- Potency [12]: inconclusive: 1.39 µM [cytotoxic, full curve, poor fit]

SMILES: CN1C[C@H](CNC(=O)OCc2ccccc2)C[C@@H]2c3cccc4c3c(cn4C)C[C@H]21
- Potency [9]: active: 26.6 µM
- Potency [2]: inconclusive: 26.6 µM [falling, partial curve]
- Potency [13]: active: 33.5 µM
- Potency [14]: inconclusive: 6.68 µM [rising, full curve, poor fit]
- Potency [5]: active: 13.3 µM
- Potency [7]: active: 13.3 µM
- Potency [15]: inconclusive: 33.5 µM [falling, single point]

SMILES: CCC[N+](=O)[O-]
- Potency [9]: inactive
- Potency [2]: inactive
- Potency [3]: inactive
